The full ranking holds about 81,000 sequences; the median of “one-hybrid fitness for binding NBS DNA” is about -0.1, and the highest 2% start at about 0.36. Some of the results follow.
B1: Caulobacter ParB omega fusion; a variant is named by its letters at X, in order, B8GW30 (parent)
chain: MESVVVGEPGMSEGRRGLGRGLSALLGEVDAAPAQAPGEQLGGSREAPIEILQRNPDQPRRTFREEDLEDLSNSIREKGVLQPILVRPSPDTAGEYQIVAGERAWRAAQRAGLKTVPIMVRELDDLAVLEIGIIENVQRADLNVLEEALSYKVLMEKFERTQENIAQTIGKSXSHVANXMRLLXLPDEVQSYLVSGELTAXHARAIAAAADPVALAKQIIEGGLSVRETEALARKAPNLSAGKSKGGRPPRVKDTDTQALESDLSSVLGLDVSIDHRGSTGTLTITYATLEQLDDLCNRLTRGI

Variants of: B1
Assay: one-hybrid fitness for binding NBS DNA (the Noc-binding site; scaled: cognate 1, non-cognate 0); higher = stronger binding
Details: with NBS DNA site
Procedure, shortened: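 On M9-minus-histidine containing 0.1 mM IPTG and 5 mM 3-AT, E. coli USO cells with a HIS3 reporter, site 19 bp from the promoter, grew 48 hours at 37°C to select Caulobacter ParB libraries randomised at four specificity codons. Plasmids from before and after were Illumina-sequenced, with three replicate libraries pooled and variants under 10 reads left out. Fitness is the log change in variant-to-wild-type read ratio, rescaled against cognate and non-cognate.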

Row | Variant | one-hybrid fitness for binding NBS DNA
1 | TFLK | ≤ 0.2
2 | MLRE | ≤ 0.2
3 | PCSK | ≤ 0.2
4 | ERKR | 0.275
5 | ALGL | ≤ 0.2
6 | NTDR | ≤ 0.2
7 | GSIA | ≤ 0.2
8 | RWAV | ≤ 0.2
9 | WSED | ≤ 0.2
10 | HGAD | ≤ 0.2
11 | GRTE | ≤ 0.2
12 | TTEN | ≤ 0.2
13 | RKCV | ≤ 0.2
14 | WEIL | ≤ 0.2
15 | DSNG | ≤ 0.2
16 | RYDY | ≤ 0.2
17 | ACPY | ≤ 0.2
18 | ERHV | ≤ 0.2
19 | DAWC | ≤ 0.2
20 | LQAL | ≤ 0.2
21 | SCKS | ≤ 0.2
22 | DPLE | ≤ 0.2
23 | QHSH | ≤ 0.2
24 | LTCC | ≤ 0.2

Row | Variant | one-hybrid fitness for binding NBS DNA
25 | EKCC | ≤ 0.2
26 | NWAR | ≤ 0.2
27 | WWCY | ≤ 0.2
28 | LVVV | ≤ 0.2
29 | YTRS | ≤ 0.2
30 | SNVG | ≤ 0.2
31 | GGSP | ≤ 0.2
32 | TRGE | ≤ 0.2
33 | TKAF | ≤ 0.2
34 | KHVM | ≤ 0.2
35 | CRHK | ≤ 0.2
36 | QPSE | ≤ 0.2
37 | HTKF | ≤ 0.2
38 | FPTT | ≤ 0.2
39 | TSTH | ≤ 0.2
40 | MRNR | ≤ 0.2
41 | HIES | ≤ 0.2
42 | IDDR | ≤ 0.2
43 | QPAF | ≤ 0.2
44 | MFRK | ≤ 0.2
45 | AYQG | ≤ 0.2
46 | RKEP | ≤ 0.2
47 | YSLR | ≤ 0.2
48 | SKIL | ≤ 0.2

Row | Variant | one-hybrid fitness for binding NBS DNA
49 | PAIM | ≤ 0.2
50 | AVYR | ≤ 0.2
51 | NKVR | ≤ 0.2
52 | TQKA | ≤ 0.2
53 | CSPP | ≤ 0.2
54 | FHKL | ≤ 0.2
55 | PNAN | ≤ 0.2
56 | DTPR | ≤ 0.2
57 | IPMD | ≤ 0.2
58 | ECKR | ≤ 0.2
59 | RKQR | 0.573
60 | LSYM | ≤ 0.2
61 | MLAD | ≤ 0.2
62 | RGTA | ≤ 0.2
63 | CYLC | ≤ 0.2
64 | NHTV | ≤ 0.2
65 | TSPF | ≤ 0.2
66 | AFAG | ≤ 0.2
67 | PSGA | ≤ 0.2
68 | SHIP | ≤ 0.2
69 | HHLI | ≤ 0.2
70 | EAPW | ≤ 0.2
71 | CASS | ≤ 0.2
72 | GAEP | ≤ 0.2

Row | Variant | one-hybrid fitness for binding NBS DNA
73 | ELPK | ≤ 0.2
74 | RLFM | ≤ 0.2
75 | RCPY | ≤ 0.2
76 | HAGF | ≤ 0.2
77 | ESLR | ≤ 0.2
78 | HLDG | ≤ 0.2
79 | HSLW | ≤ 0.2
80 | FGAT | ≤ 0.2
81 | CWIR | 0.36
82 | PGWR | ≤ 0.2
83 | PACA | ≤ 0.2
84 | RWEY | ≤ 0.2
85 | IENT | ≤ 0.2
86 | HNAG | ≤ 0.2
87 | SGKG | ≤ 0.2
88 | QVYI | ≤ 0.2
89 | QNTD | ≤ 0.2
90 | ELPE | ≤ 0.2
91 | WMLA | ≤ 0.2
92 | SAKA | ≤ 0.2
93 | IQDT | ≤ 0.2
94 | ATCF | ≤ 0.2
95 | CLYL | ≤ 0.2
96 | LDMK | ≤ 0.2

Row | Variant | one-hybrid fitness for binding NBS DNA
97 | GCNC | ≤ 0.2
98 | HDLC | ≤ 0.2
99 | GNSW | ≤ 0.2
100 | PYWI | ≤ 0.2
101 | LDTV | ≤ 0.2
102 | IYTT | ≤ 0.2
103 | EFAS | ≤ 0.2
104 | ENHC | ≤ 0.2
105 | LCKY | ≤ 0.2
106 | CGGV | ≤ 0.2
107 | HGNW | ≤ 0.2
108 | FDNC | ≤ 0.2
109 | LQTS | ≤ 0.2
110 | RSAT | 0.414
111 | QCMK | ≤ 0.2
112 | PIVR | ≤ 0.2
113 | TTCS | ≤ 0.2
114 | ASRY | ≤ 0.2
115 | AMPM | ≤ 0.2
116 | YARA | ≤ 0.2
117 | VARE | ≤ 0.2
118 | SEKY | ≤ 0.2
119 | TMKN | ≤ 0.2
120 | AFTT | ≤ 0.2

Row | Variant | one-hybrid fitness for binding NBS DNA
121 | SMYK | ≤ 0.2
122 | YEDS | ≤ 0.2
123 | LFDS | ≤ 0.2
124 | YLCS | ≤ 0.2
125 | HTET | ≤ 0.2
126 | SYLC | ≤ 0.2
127 | VYPS | ≤ 0.2
128 | WWPE | ≤ 0.2
129 | ENTI | ≤ 0.2
130 | TGLS | ≤ 0.2
131 | WNHG | ≤ 0.2
132 | QYNI | ≤ 0.2
133 | SYWY | ≤ 0.2
134 | WQDR | ≤ 0.2
135 | EMMR | 0.344
136 | FCQC | ≤ 0.2
137 | KAAM | ≤ 0.2
138 | NTYR | ≤ 0.2
139 | PSQL | ≤ 0.2
140 | VKCA | ≤ 0.2
141 | TKYI | ≤ 0.2
142 | HHRV | ≤ 0.2
143 | MGKC | ≤ 0.2
144 | VSTL | ≤ 0.2

Row | Variant | one-hybrid fitness for binding NBS DNA
145 | PIDG | ≤ 0.2
146 | AYLG | ≤ 0.2
147 | RPQD | ≤ 0.2
148 | RDYR | ≤ 0.2
149 | PHCY | ≤ 0.2
150 | SIKD | ≤ 0.2
151 | VVTQ | ≤ 0.2
152 | WTPH | ≤ 0.2
153 | RWCN | ≤ 0.2
154 | PQHR | ≤ 0.2
155 | NYVI | ≤ 0.2
156 | WKGT | ≤ 0.2
157 | EMKS | ≤ 0.2
158 | CCVG | ≤ 0.2
159 | APFF | ≤ 0.2
160 | LAGH | ≤ 0.2
161 | QSHA | 0.275
162 | YEVS | ≤ 0.2
163 | CTLN | ≤ 0.2
164 | RYMA | ≤ 0.2
165 | QHQT | 0.363
166 | PGND | ≤ 0.2
167 | PYVQ | ≤ 0.2
168 | WTGH | ≤ 0.2

Row | Variant | one-hybrid fitness for binding NBS DNA
169 | NFGT | ≤ 0.2
170 | LSWL | ≤ 0.2
171 | KSDT | ≤ 0.2
172 | DSDL | ≤ 0.2
173 | RILW | ≤ 0.2
174 | NLFG | ≤ 0.2
175 | QVRM | ≤ 0.2
176 | QTTN | 0.236
177 | QSKD | 0.203
178 | LDND | ≤ 0.2
179 | SLTD | ≤ 0.2
180 | DQTG | ≤ 0.2
181 | VLDY | ≤ 0.2
182 | RAMD | ≤ 0.2
183 | LEID | ≤ 0.2
184 | IDLR | ≤ 0.2
185 | NYQC | ≤ 0.2
186 | FCQS | ≤ 0.2
187 | STPN | ≤ 0.2
188 | IRPV | ≤ 0.2
189 | TLPP | ≤ 0.2
190 | LQDI | ≤ 0.2
191 | YHPM | ≤ 0.2
192 | DTML | ≤ 0.2

Row | Variant | one-hybrid fitness for binding NBS DNA
193 | ELDT | ≤ 0.2
194 | AVMP | ≤ 0.2
195 | ETHW | ≤ 0.2
196 | CPYT | ≤ 0.2
197 | ATQS | ≤ 0.2
198 | TNCV | ≤ 0.2
199 | PQPS | ≤ 0.2
200 | FPKF | ≤ 0.2
201 | RSWA | ≤ 0.2
202 | GENV | ≤ 0.2
203 | SQQR | ≤ 0.2
204 | NLIV | ≤ 0.2
205 | MAFG | ≤ 0.2
206 | PYIL | ≤ 0.2
207 | TFNC | ≤ 0.2
208 | PLAE | ≤ 0.2
209 | PPDR | ≤ 0.2
210 | MQQS | ≤ 0.2
211 | HNTV | ≤ 0.2
212 | SDGM | ≤ 0.2
213 | PPPY | ≤ 0.2
214 | GMWK | ≤ 0.2
215 | AGQY | ≤ 0.2
216 | ILGC | ≤ 0.2

Row | Variant | one-hybrid fitness for binding NBS DNA
217 | HPNT | ≤ 0.2
218 | WHCS | ≤ 0.2
219 | YFEG | ≤ 0.2
220 | LTPG | ≤ 0.2
221 | MDMG | ≤ 0.2
222 | QYQS | 0.373
223 | IFWT | ≤ 0.2
224 | ENWC | ≤ 0.2
225 | SENF | ≤ 0.2
226 | SNGS | ≤ 0.2
227 | TMPY | ≤ 0.2
228 | RSIF | ≤ 0.2
229 | YYQS | ≤ 0.2
230 | GPCT | ≤ 0.2
231 | STCF | ≤ 0.2
232 | NDTC | ≤ 0.2
233 | SAAD | ≤ 0.2
234 | LRKD | ≤ 0.2
235 | HVHC | ≤ 0.2
236 | CSII | ≤ 0.2
237 | WQGG | ≤ 0.2
238 | CAMG | ≤ 0.2
239 | WKVS | ≤ 0.2
240 | WYLG | ≤ 0.2

Row | Variant | one-hybrid fitness for binding NBS DNA
241 | RMAN | ≤ 0.2
242 | EPHS | ≤ 0.2
243 | PCSL | ≤ 0.2
244 | PWAR | ≤ 0.2
245 | MNYS | ≤ 0.2
246 | RTLC | ≤ 0.2
247 | RHKY | 0.294
248 | LSLR | ≤ 0.2
249 | NSTI | ≤ 0.2
250 | ETEA | ≤ 0.2
251 | NSIP | ≤ 0.2
252 | DMAS | ≤ 0.2
253 | MVPI | ≤ 0.2
254 | PEWV | ≤ 0.2
255 | LASS | ≤ 0.2
256 | AWDA | ≤ 0.2
257 | NRKV | ≤ 0.2
258 | TPHY | ≤ 0.2
259 | ELLR | ≤ 0.2
260 | NANK | ≤ 0.2
261 | LGNI | ≤ 0.2
262 | GPYG | ≤ 0.2
263 | LLMG | ≤ 0.2
264 | MRRV | ≤ 0.2

Row | Variant | one-hybrid fitness for binding NBS DNA
265 | HWYG | ≤ 0.2
266 | SLNR | ≤ 0.2
267 | RIWD | ≤ 0.2
268 | GLNC | ≤ 0.2
269 | LNPT | ≤ 0.2
270 | RIPS | ≤ 0.2
271 | PCNR | ≤ 0.2
272 | NRMG | ≤ 0.2
273 | EWAG | ≤ 0.2
274 | RPYI | ≤ 0.2
275 | IWNY | ≤ 0.2
276 | GAFN | ≤ 0.2
277 | ICMM | ≤ 0.2
278 | ISHK | ≤ 0.2
279 | PSVM | ≤ 0.2
280 | YWKS | ≤ 0.2
281 | HWVR | ≤ 0.2
282 | GACA | ≤ 0.2
283 | QASW | ≤ 0.2
284 | MSRG | ≤ 0.2
285 | DHMN | ≤ 0.2
286 | LSCT | ≤ 0.2
287 | GAPE | ≤ 0.2
288 | SKGW | ≤ 0.2

Row | Variant | one-hybrid fitness for binding NBS DNA
289 | THFC | ≤ 0.2
290 | SWKR | ≤ 0.2
291 | QVEV | ≤ 0.2
292 | RCLR | 0.416
293 | SLYL | ≤ 0.2
294 | WWQR | ≤ 0.2
295 | IEKT | ≤ 0.2
296 | KSKR | 0.342
297 | HDAD | ≤ 0.2
298 | PFSM | ≤ 0.2
299 | HPQC | ≤ 0.2
300 | KASY | ≤ 0.2
301 | DYRR | ≤ 0.2
302 | YYDT | ≤ 0.2
303 | IFNG | ≤ 0.2
304 | QIEG | ≤ 0.2
305 | APGD | ≤ 0.2
306 | LSAG | ≤ 0.2
